The text below walks through data of paper PMC4336329 (PLoS ONE, 2015).

Among all 310,000 compounds or so, about 14,000 (4.5%) showed an effect of 50% or more. Effects have a minus sign here. The list shows a part of the results.
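Further: peak tail current of the secondary pulse compared with the same well before compound.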

This assay deals with human ether-à-go-go-related gene (hERG) potassium channel (human, UniProt Q12809). The assay is described as follows: primary screen, population patch clamp on CHO cells stably expressing hERG.
Chain of human ether-à-go-go-related gene (hERG) potassium channel (Q12809 whole entry, looked up): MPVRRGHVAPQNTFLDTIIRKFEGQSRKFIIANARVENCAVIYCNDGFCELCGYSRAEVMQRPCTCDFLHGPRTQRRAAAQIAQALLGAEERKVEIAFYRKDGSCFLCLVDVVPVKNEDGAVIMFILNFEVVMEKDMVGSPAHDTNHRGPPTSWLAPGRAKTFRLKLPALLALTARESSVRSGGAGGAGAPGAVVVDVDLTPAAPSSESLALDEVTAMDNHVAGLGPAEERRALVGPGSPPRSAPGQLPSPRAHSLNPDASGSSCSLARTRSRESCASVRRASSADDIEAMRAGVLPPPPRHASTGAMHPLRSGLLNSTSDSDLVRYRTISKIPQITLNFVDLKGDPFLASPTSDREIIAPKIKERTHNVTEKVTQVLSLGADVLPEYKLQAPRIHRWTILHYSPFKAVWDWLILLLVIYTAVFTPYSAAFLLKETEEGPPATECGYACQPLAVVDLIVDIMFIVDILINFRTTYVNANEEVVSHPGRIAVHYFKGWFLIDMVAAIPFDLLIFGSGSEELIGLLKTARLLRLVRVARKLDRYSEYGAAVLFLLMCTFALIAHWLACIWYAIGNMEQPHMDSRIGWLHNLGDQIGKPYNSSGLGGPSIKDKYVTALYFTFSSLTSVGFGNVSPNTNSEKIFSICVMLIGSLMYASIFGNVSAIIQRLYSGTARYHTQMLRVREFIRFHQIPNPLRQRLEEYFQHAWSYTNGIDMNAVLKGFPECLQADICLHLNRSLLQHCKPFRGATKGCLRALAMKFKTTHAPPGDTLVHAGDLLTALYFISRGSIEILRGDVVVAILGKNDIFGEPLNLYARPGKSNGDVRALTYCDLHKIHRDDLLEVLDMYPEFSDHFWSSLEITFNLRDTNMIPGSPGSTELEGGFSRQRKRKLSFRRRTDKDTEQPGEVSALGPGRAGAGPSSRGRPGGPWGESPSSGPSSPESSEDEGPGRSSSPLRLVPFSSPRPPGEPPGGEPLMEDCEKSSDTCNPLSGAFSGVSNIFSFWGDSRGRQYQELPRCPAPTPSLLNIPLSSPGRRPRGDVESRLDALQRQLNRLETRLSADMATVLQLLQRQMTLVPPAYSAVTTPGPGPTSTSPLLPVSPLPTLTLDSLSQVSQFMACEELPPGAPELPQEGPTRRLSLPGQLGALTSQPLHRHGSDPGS
Turning to `N/C(=N\OC(=O)Oc1ccccc1)c1ccc(Br)cc1`, the “hERG current change (%, negative = inhibition) at 10uM” value amounted to 6.65%. In the case of `COC(=O)c1c(N2C(=O)[C@H]3[C@@H](C2=O)[C@]2(C(=O)Nc4c2ccc(C)c4C)N2CCC[C@@H]32)sc(C)c1C` it was 15.4%; in that of `O=C1CCCN2N=C(SCC(=O)N3N=C(c4ccc(Br)cc4)CC3c3ccc(F)cc3)SC2=N1` (stereo not drawn), 1.94%; in that of `CC(C)COc1cccc(C(=O)NC2(C)CCS(=O)(=O)C2)c1` (stereo not drawn), -0.429%. Turning to `O=C(CC1NC(=O)NC1=O)Nc1ccc(Cl)cc1` (stereo not drawn), the “hERG current change (%, negative = inhibition) at 10uM” value was 29.4%. As for `O=C(N/N=C/c1ccc(OC(F)F)cc1)c1ccc(Br)cc1`, the “hERG current change (%, negative = inhibition) at 10uM” value was found to be 2.81%. Then `CCCCN1C(=O)C(=O)NC[C@@H]1C(C)CC` (stereo partly drawn), with 20.1%. In the case of `COc1ccc(CN2CCN(Cc3ccc(C(F)(F)F)cc3)CC2)cc1.O=C(O)C(=O)O` it was -65.7%; in that of `O=C(COc1ccc2c3c(c(=O)oc2c1)CCCC3)N[C@@H](Cc1ccccc1)C(=O)O`, -4.88%. As to `NC(=O)CC(NC(=O)c1ccccc1)c1ccc(NCc2ccccc2)c([N+](=O)[O-])c1` (stereo not drawn), the “hERG current change (%, negative = inhibition) at 10uM” value is given as 17%. In the case of `CCN(Cc1ccccc1)C(=O)c1ccc(NC(=O)c2ccc(OC)cc2)cc1` it was 4.93%; in that of `Nc1cc(=O)[nH]c(SCC(=O)c2ccc(F)cc2)n1`, 9.03%; in that of `Cc1cc(C)c(NC(=O)CNC(=O)CN(C)Cc2ccc(Br)s2)c(C)c1`, -4.26%. Then `CCN(CC)CCOC(=O)c1ccc(N/C=C(/C#N)c2nc(-c3cccc(OC)c3)cs2)cc1`, with 9.72%.

Turning to `CC(=C1C(=O)c2ccccc2C1=O)N1CCN(c2ccccn2)CC1`, the “hERG current change (%, negative = inhibition) at 10uM” value is -28.3%. Then `CN(CC(=O)Nc1ncn[nH]1)S(=O)(=O)c1ccc(Cl)cc1`, with -6.56%; and `O=C(Cn1cccc1C(=O)c1ccccc1)NCc1ccco1`, with 5.43%; and `Cn1cccc1/C=C1\SC(=Nc2cccc(O)c2)NC1=O`, with -13.5%. Then `Cc1nc(Nc2ccccc2)sc1C(=O)Nc1ccccc1`, with 7.99%; and `NC(=O)C1CN(S(=O)(=O)c2ccc(Cl)cc2F)c2ccccc2O1` (stereo not drawn), with 15.5%. For the compound `CC(=O)N1c2ccc(S(=O)(=O)N3CCCC3)cc2CC1C(=O)NCc1ccc(OC(C)C)cc1` (stereo not drawn), the “hERG current change (%, negative = inhibition) at 10uM” value is given as -14.6%.

With `CCOC(=O)C1=C(C)NC(=O)NC1c1ccc(C)o1` (stereo not drawn), the “hERG current change (%, negative = inhibition) at 10uM” value came out at 9.83%.

For the compound `CC1Cc2ccccc2N1C(=O)Cc1cccs1` (stereo not drawn), the “hERG current change (%, negative = inhibition) at 10uM” value worked out at 6.94%. Consider `COC(=O)C1CCN(C(=O)/C=C/c2ccccc2)CC1`, for which the “hERG current change (%, negative = inhibition) at 10uM” value is recorded as 4.21%.

As for `CC(C)C(NC(=O)c1ccc2c(c1)OCO2)C(=O)N/N=C/c1cccs1` (stereo not drawn), the “hERG current change (%, negative = inhibition) at 10uM” value is listed as 15.8%.

For the compound `CCOC(=O)c1nn(-c2ccc3ccccc3c2)cc1O`, the “hERG current change (%, negative = inhibition) at 10uM” value is reported as 1.92%. In the case of `COCCn1c(Cc2ccccc2)nnc1SCC(=O)Nc1cc(C)on1` it was -5.36%. Take `O=C(Nc1ncc(S(=O)(=O)c2ccc([N+](=O)[O-])cc2)s1)c1ccccc1F`: the “hERG current change (%, negative = inhibition) at 10uM” value is listed as 14.9%. In the case of `Cc1ccc(-c2csc(NC(=O)C[n+]3cc(-c4ccccc4)n4c3CCC4)n2)cc1.[Cl-]` it was -57%; in that of `CC(=O)OCC(CCn1cnc2cnc(N)nc21)COC(C)=O`, 10.5%. As for `CCOC(=O)c1cnn(-c2ccc(F)cc2)c1N`, the “hERG current change (%, negative = inhibition) at 10uM” value worked out at 0.583%. Then `CNCCCOc1cccc(OC(C)C)c1.O=C(O)C(=O)O`, with 4.63%; and `O=C(N/N=C/c1ccc2c(c1)OCO2)c1cc(-c2ccc(F)cc2)nc2ccccc12`, with 20%. For `O=C(N/N=C/c1ccco1)c1ccc(NC(=O)c2ccccc2Cl)cc1`, the “hERG current change (%, negative = inhibition) at 10uM” value turned out to be 13.1%. In the case of `CSc1ccc(/C=C(/NC(=O)c2ccco2)C(=O)N2CCOCC2)cc1` it was -3.69%; in that of `CCc1ccc(NC(=O)CCNS(=O)(=O)c2cccs2)cc1`, 7.74%. Then `CCN(CC)CC(C(=O)N(CC)CC)P(=O)(c1ccccc1)c1ccccc1` (stereo not drawn), with 14.2%; and `O=C(CSc1ccc(-c2ccccn2)nn1)NC1CCCC1`, with -4.02%; and `CC(=O)Nc1ccc(C(=O)OCC(=O)NC(=O)NC2CCCCC2)cc1`, with -0.454%. In the case of `Cc1c(C(=O)N2CCc3ccccc3C2)oc2ccc(Br)cc12` it was -4.02%; in that of `Cc1noc(C)c1COC(=O)CCc1nc2ccccc2c(=O)[nH]1`, 6.21%.

Regarding `C/C(=N\Nc1nc2ccccc2c(=O)n1O)c1ccco1`, the “hERG current change (%, negative = inhibition) at 10uM” value turned out to be 17.9%.

As for `CCc1ccc2c(Cl)c(C(=O)N/N=C/c3c[nH]c4ccccc34)sc2c1`, the “hERG current change (%, negative = inhibition) at 10uM” value is 2.9%.

`COc1ccc(/C=C/C(=O)OCC(=O)N2CC(=O)Nc3ccccc32)cc1S(=O)(=O)N1CCOCC1`: the “hERG current change (%, negative = inhibition) at 10uM” value is given as -2.6%. In the case of `c1ccc(CCc2ccccc2-c2nc(-c3cccnc3)no2)cc1` it was 2.1%; in that of `COCCCNS(=O)(=O)c1ccc2[nH]c3c(c2c1)CCCCC3`, -5.24%; in that of `COc1ccc(S(=O)(=O)NNC(=O)Cc2csc(C)n2)cc1[N+](=O)[O-]`, 8.31%. Then `COc1ccc(OC)c(/C=C/C(=O)OCC(=O)NCc2ccco2)c1`, with 2.2%. As to `COc1ccccc1N1CCN(CC(=O)N2CCCC2)CC1.O=C(O)C(=O)O`, the “hERG current change (%, negative = inhibition) at 10uM” value is reported as 8.21%. In the case of `COc1ccc(S(=O)(=O)N2CCC(C(=O)NCC3CCCO3)CC2)cc1` (stereo not drawn) it was -10.8%; in that of `C=CCNC(=O)c1ccccc1SCc1c(C)noc1C`, 18.8%; in that of `CCN(CC)C(=O)Cn1cc(S(=O)(=O)CC(=O)NCc2ccccc2)c2ccccc21`, -11.6%. Consider `Cc1ccc(OCC(O)Cn2c(N3CCCCC3)nc3c2c(=O)[nH]c(=O)n3C)cc1` (stereo not drawn), for which the “hERG current change (%, negative = inhibition) at 10uM” value worked out at 9.46%.

For the compound `CCOC(=O)C1CCN(S(=O)(=O)c2ccc(CC)cc2)CC1`, the “hERG current change (%, negative = inhibition) at 10uM” value is -18.6%. With `CCOC(=O)c1nc(C)sc1-c1ccnn1S(=O)(=O)c1cccc(Cl)c1`, the “hERG current change (%, negative = inhibition) at 10uM” value is on record as -22.5%.

Consider `O=C(CCN1C(=O)[C@H]2CC=CC[C@H]2C1=O)NCc1nc(-c2ccc(Cl)cc2)no1`, for which the “hERG current change (%, negative = inhibition) at 10uM” value was -14.2%. For `Cc1ccc(CS(=O)(=O)CCC(=O)NCCN2CCCCC2C)cc1` (stereo not drawn), the “hERG current change (%, negative = inhibition) at 10uM” value is listed as -2.59%. In the case of `CCOC(=O)C1=C(C)N(CCCC(=O)O)C(=O)NC1c1ccccc1OS(=O)(=O)c1ccc(C)cc1` (stereo not drawn) it was -15.2%; in that of `CCOC(=O)C1CCCN(c2c(NCCCN(C)c3ccccc3)c(=O)c2=O)C1` (stereo not drawn), -5.19%; in that of `COc1ccc(NC(=O)C2CCC(=O)N2C(=O)OCc2ccccc2)cc1` (stereo not drawn), -3.98%. Then `CCOC(=O)C1CCCN(S(=O)(=O)c2cn(C)c(=O)n(C)c2=O)C1` (stereo not drawn), with 12.8%; and `COc1ccc(CN2CCN(C(=O)c3cccs3)CC2)cc1.O=C(O)C(=O)O`, with -7.86%; and `CCN(CC)S(=O)(=O)c1ccc(N2CCCCC2)c(C(=O)Nc2ccccc2N2CCOCC2)c1`, with -51.1%. In the case of `CCCC(=O)C1=C(O)C(C(=O)OC)C(C)(C)CC1=Nc1cccc2ccccc12` (stereo not drawn) it was -0.911%; in that of `CCC(=O)NC(=S)Nc1ccc(NC(=O)c2ccc([N+](=O)[O-])cc2)cc1`, 10.2%.

Take `COc1ccc(Cc2nnc(NC(=O)c3ccc(OC)cc3OC)s2)cc1`: the “hERG current change (%, negative = inhibition) at 10uM” value amounted to 5.76%. Consider `COCCN1C(=O)N(c2cccc(C)c2)C(=O)C1CC(=O)Nc1cc(OC)cc(OC)c1` (stereo not drawn), for which the “hERG current change (%, negative = inhibition) at 10uM” value came out at 10.2%. In the case of `C=C1C(=O)O[C@H]2[C@H]1[C@H](OC(=O)CC(=O)O[C@@H]1C[C@@H](C)[C@@H]3C=CC(=O)[C@@]3(C)[C@H]3OC(=O)C(=C)[C@H]13)C[C@@H](C)[C@H]1C=CC(=O)[C@]12C` it was 25.3%. In the case of `Cc1ccc(CNC(=O)c2cc(C)nn2-c2ccccc2)cc1` it was -15%; in that of `CCC(NC(=O)C1CCCC1)c1ccc(C)cc1` (stereo not drawn), 13%; in that of `O=C(Cn1cc(Cl)ccc1=O)c1ccc(Cl)cc1`, 11.7%. Then `O=C(CSc1ncnc2c1cnn2-c1ccccc1)Nc1ccccc1`, with 0.835%; and `CC(NC(=O)CN(c1ccccc1F)S(C)(=O)=O)c1ccccc1` (stereo not drawn), with -1.82%; and `Cc1cccc(C(=O)NCC(=O)NCCSc2ccc(Br)cc2)c1`, with -7.38%. Turning to `COc1ccc(F)cc1CSc1nnnn1-c1ccc(O)cc1`, the “hERG current change (%, negative = inhibition) at 10uM” value was -32.1%. With `COC(=O)c1ccccc1S(=O)(=O)N1CCC(C(=O)OC(C)C(=O)Nc2ccc(NC(C)=O)cc2)CC1` (stereo not drawn), the “hERG current change (%, negative = inhibition) at 10uM” value is -14.6%.

Regarding `CCCn1nc2cc(C(=O)NCC34CC5CC(CC(C5)C3)C4)ccc2c1OCC`, the “hERG current change (%, negative = inhibition) at 10uM” value is reported as -11.3%. In the case of `O=C(c1ccncc1)N1CCN(C(=O)c2cccc3ccccc23)CC1` it was 14%; in that of `C/C(=N\N1CCN(Cc2ccc(C)cc2)CC1)c1ccco1`, -67.6%; in that of `CCOC(=O)[C@H]1[C@H]2COc3ccc(OC)cc3[C@@H]2N2C(=O)CN(C)C(=O)[C@@]12C`, 0.268%.

Take `CN1C(=O)N(C)C(=O)C2(Cc3c(ccc4ccccc34)N(C)C2)C1=O`: the “hERG current change (%, negative = inhibition) at 10uM” value is reported as 0.124%. Then `CCCCNC(=O)C(c1ccc(OCC(=O)OC)c(C(=O)OC)c1)N(CCOC)C(=O)CCCCCN1C(=O)NC(c2ccc(-c3ccccc3)cc2)C(C(=O)OCc2ccccc2)=C1C` (stereo not drawn), with 4.15%. Then `Clc1ccccc1Nc1nnc(-c2ccncc2)s1`, with -6.07%; and `COCCn1c(NC(=S)NC(=O)C2CC2)cc(=O)[nH]c1=O`, with 21.6%.
